Reference: patent US20260217837A1, “FGFR3 BINDING MOLECULES AND METHODS OF USE THEREOF” (Regeneron Pharmaceuticals, Inc., priority 2023, published 2026)

Key:
mouse FGFR3b = target: T1, mouse FGFR3b (Mus musculus, UniProt Q61851); experiment: Biacore binding to mouse FGFR3b; settings: 25 C
T1 construct: biotinylated human or mouse FGFR3b-ecto.mmH, human FGFR3c-ecto.mmH or Fel-d 1.mmH; mmh (C)
T1 sequence (Q61851 21-371 isoform Q61851-2): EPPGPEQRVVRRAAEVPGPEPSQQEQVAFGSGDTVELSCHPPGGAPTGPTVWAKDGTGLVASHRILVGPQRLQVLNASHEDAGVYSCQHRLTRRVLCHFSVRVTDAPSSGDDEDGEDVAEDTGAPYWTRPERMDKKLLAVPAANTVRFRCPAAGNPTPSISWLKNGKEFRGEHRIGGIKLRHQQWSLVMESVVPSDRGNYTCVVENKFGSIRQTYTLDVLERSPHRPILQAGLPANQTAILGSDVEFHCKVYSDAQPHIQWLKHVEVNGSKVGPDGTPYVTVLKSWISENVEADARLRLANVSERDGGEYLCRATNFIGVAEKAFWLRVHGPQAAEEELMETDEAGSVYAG
Experimental: (§1) Affinity and mechanism of action of binding of anti-FGFR3 antibodies to FGFR3 isoforms were determined by Biacore analysis. In brief, in-house generated monoclonal anti-human Fc antibody was immobilized on the surface of a CM-5 sensor chip. Different concentrations of FGFR3 antibodies were injected at 50 μL/min for 4 min and the assay was performed at 25° C. The mAb binding response was monitored and, for low affinity receptors, steady-state binding equilibrium was calculated. Kinetic association (ka) and dissociation (kd) rate constants were determined by processing and fitting the data to a 1:1 binding model using Scrubber 2.0 curve fitting software. Binding dissociation equilibrium constants (KD) and dissociative half-lives (t1/2) were calculated from the kinetic rate constants using the formula: KD (M)=kd/ka; and t1/2 (min)=(ln2/(60*kd). Some KD values were derived using the steady state equilibrium dissociation constant; When no KD values could be derived, it was marked as NB (no binding observed) or IC (inconclusive affinity determination due to low specific RU signal).
The binding affinities of BiP063N2 and its parental antibodies to FGFR3 isoforms from different species were assessed via Biacore analysis as described in Section 8.1.7, the results of which are summarized in FIG. 7.

[1] = tested on: BaF3 cells expressing FGFR3 S249C; experiment: BaF3 cell proliferation, FGFR3 S249C; format: cell-based; settings: 72 hours, hFGF1 and heparin
Source text: cDNA expressing FGFR3 mutants (S249C, S248C, Y375C, V555M, V555L, S249C+V555M, or S249C+V555L) were synthesized and cloned into pLVX Lenti-viral vector (Thermo Fisher). Viral particles were generated by lipofectamine transfection of LentiX 293T cells using Lenti-X packaging single shots following manufacturer's protocol (Clontech/Takara) and concentrated using Lenti-X concentrator and titer determined using Lenti-X p24 rapid titer kit (Clontech/Takara). BaF3 cells were transduced with virus at ~0.3 MOI. Expression of FGFR3 receptors was confirmed by FACS analysis and western blot.
For cell proliferation assays, engineered BaF3/hFGFR3 cells grown in complete medium were washed and plated in IL-3-free culture media±5 μg/ml heparin and 1 nM human FGF1. Cells were plated out at 1×10^5 cells/well into 96-well plates, followed by the addition of 1:3 serially diluted antibodies as indicated in figures. After addition of antibodies, cells were incubated at 37° C. for 72 h followed by the addition of CellTiter-Glo™ (Promega) reagent. The luminescent signal was detected by Envision plate reader (PerkinElmer). Data was analyzed using Prism software (GraphPad).
Heparin has been implicated in disulfide formation between FGFR3 S249C monomers. […] The levels of phospho-MAPK (pMAPK) and total MAPK were determined by western blot as described in Section 8.1.5.

monkey FGFR3b = experiment: Biacore binding to monkey FGFR3b
Experimental: as §1

B1: mAb063: parental anti-FGFR3 antibody of BiP063N2, inhibitory; anchor mAb (antibody)
heavy: QVQLQESGPGLVKPSETLSLTCTVSGDSINSYFWSWIRQLPGKELEWIGHIYSSGSTRYNPSLQSRVTISIDTSKNQFSLKLSSVTAADTAVYYCARGASAVDYWGQGTLVTVSSASTKGPSVFPLAPCSRSTSESTAALGCLVKDYFPEPVTVSWNSGALTSGVHTFPAVLQSSGLYSLSSVVTVPSSSLGTKTYTCNVDHKPSNTKVDKRV[human IgG4 Fc with S228P (EU numbers) cut from this listing]
light: EIVLTQSPGTLSLSPGERATLSCRTSQSISSGYLAWYQQKPGQAPRLLIYGASRRATGIPDRFSGSGSGTDFTLTISRLEPEDFVVYYCQQYGSSPYTFGQGTKLEIKRTVAAPSVFIFPPSDEQLKSGTASVVCLLNNFYPREAKVQWKVDNALQSGNSQESVTEQDSKDSTYSLSSTLTLSKADYEKHKVYACEVTHQGLSSPVTKSFNRGEC
- binding to monomeric mouse FGFR3b (mouse FGFR3b): shown to bind
- proliferation of hFGF1/heparin treated BaF3 cells expressing FGFR3 S249C [1]: able to inhibit the proliferation
- binding to monkey FGFR3b (monkey FGFR3b; Biacore, 25 C): shown to bind
- Kd (monkey FGFR3b; mfFGFR3b mmh, unit inferred): 2.02 nM
